Test results from paper PMC12136788.
Substitutions are numbered along the chain they refer to. Some of the results follow.

T1: UNK ZnF1-3 (human, UniProt Q9C0B0 31-174)
T1 sequence: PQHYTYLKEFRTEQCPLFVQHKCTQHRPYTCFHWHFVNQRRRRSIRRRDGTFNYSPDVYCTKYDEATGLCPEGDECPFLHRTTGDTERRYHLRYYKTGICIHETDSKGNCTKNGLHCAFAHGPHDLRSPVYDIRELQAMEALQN

B1: 74036505_74037053_1752_CDS_ENSG00000167881_ENST00000307877|human|control|control (ssRNA)
RNA: GGGAGUUCUACAGUCCGACGAUCGUCCUUGACUUGGGAGGAGGAGGUCUCUGUUUGAUGAGCGUCGUUUGCAUCAAGGAUGGCUGCGGCCUGCAGGGAGCACUUCUCUGACCGCACUUGAGUGAUGAGCUCUUGCACAUCAGGCAACAGAGGAUUGAGCAUCA
B2: 56982380_56985783_411_CDS_ENSG00000008988_ENST00000519807|human|control|control (ssRNA)
RNA: GGGAGUUCUACAGUCCGACGAUCAGAUUCGAUCAACUCAACUCCUGGCUCAAUACUGAUGGAAGUAAUCUGCUUAACAAUCUCAGAAGGACUGUGCAAGUCAAUGAGUCGCUUGUGAAUUCUCAUCUGGAAACGAUCCCACGUCAACAGAGGAUUGAGCAUCA
B3: chr1:39494447:39494448:+_ENSG00000168653_ENST00000372967|hu_mus|hu_hu_hu_mus_False|38_98 (ssRNA)
RNA: GGGAGUUCUACAGUCCGACGAUCGCACCGAGCGGCGAUCUUGUAGGGCUGUUCUGCGCUUAGGAACAUAAAGUGCCGGUCCAGGCUGAUGCCCAGCCUUUUCUGGAUGUCAAGGAAAGGCAUGGCUCUGCAGUGCCCUUGUCACAACAGAGGAUUGAGCAUCA
B4: chr2:155494191:155494192:-_ENSMUSG00000038324_ENSMUST00000041059|mus_hu|motif|central (ssRNA)
RNA: GGGAGUUCUACAGUCCGACGAUCUUCAUCACUUAUUUUCAGUUUCUGUCCCCGGAUAGAGAUCGUAGGCCUCAUAAGAAUUUCGGCAAGAAGAUCAACACCUCCAAACAAGUCAAAAAUGUAAGUAUUUGGAUAAGUGGUUUCCAACAGAGGAUUGAGCAUCA
B5: chr7:118225073:118225074:-_ENSMUSG00000005610_ENSMUST00000162415|mus_hu|FALSE|FALSE (ssRNA)
RNA: GGGAGUUCUACAGUCCGACGAUCGCACUGAAACGAGAAGCACCCCCUUCUGCAAUCGCACUCUCCACUUUGGCGGCUUGACAACGAAGAAUCUUCAAAAGAAUAAUAUUAAUAGAUGGGGUGGGGAGGGGAGGGGACAGGAGACAACAGAGGAUUGAGCAUCA
B6: chr12:39687547:39687548:-_ENSG00000139116_ENST00000551264|hu_hu|FALSE|FALSE (ssRNA)
RNA: GGGAGUUCUACAGUCCGACGAUCACAUCAACAAUGUUUCCCAUCACAGAAUAUAUGCACAGCACUGGAAAAAAAAAAAAAAAUUAACAGCAUUUUAGUCCUGAGCACAGAAUAUAGUAGAGCUGCAAAACUUUGGUCAAUACACAACAGAGGAUUGAGCAUCA
B7: 39905808_39910131_1716_3pUTR_ENSG00000121892_ENST00000303538|human|control|control (ssRNA)
RNA: GGGAGUUCUACAGUCCGACGAUCCCACCGUUUAUCCAGUGUUCUUUCCCUUACAAAGCCAAGCAGCUGAUCAUUUACUAAGGCCAGGUCCCUCUUGGCAGCUGUUAUUAUAGUAACAAUGACAUCAUGACGAAUAGCUUCUUCCAACAGAGGAUUGAGCAUCA
B8: chr10:33190432:33190433:-_ENSG00000150093_ENST00000302278|hu_mus|hu_hu_hu_mus_True|38_78 (ssRNA)
RNA: GGGAGUUCUACAGUCCGACGAUCUACAUUUUCCAAACCUGCAUGUGAAUAAAACCCUGGCAAUAUUGCCCCAAAACUACCCUACUGUGACUAAGAUAAUUGCUACUUGAGCUUGGUGUUGCAAAAUCCGCCUGAGUAGGAUUCCAACAGAGGAUUGAGCAUCA
B9: 59419958_59420328_1429_CDS_ENSG00000166889_ENST00000300146|human|control|control (ssRNA)
RNA: GGGAGUUCUACAGUCCGACGAUCUUUGGCCACCUGAGGGGUGAUAAGCUUGGUGCGCUCCUUCUUAGGGCCAUCACCUUGUAUUUCUUCAGCAGCUGACAGUUUCUCCAGUUUUUCAAAGUAAUUCUGGUAAUAAAAAUCAUCCAACAGAGGAUUGAGCAUCA
B10: 22874823_22874943_2137_CDS_ENSG00000008853_ENST00000522948|human|control|control (ssRNA)
RNA: GGGAGUUCUACAGUCCGACGAUCGGCUGCCGAGGAAGACGGGGAGGAUGGACUGUUCCAGAAGAGCCAACGCCGUUUGGGCUGCCGCUUGAGGUGGAGGUAGUCCUCCUUCUCACGCUCCUUCCGUGCCCGCUGGUAAUGAUCCAACAGAGGAUUGAGCAUCA
B11: 93646273_93653560_803_CDS_ENSMUSG00000027198_ENSMUST00000028623|mouse|control|control (ssRNA)
RNA: GGGAGUUCUACAGUCCGACGAUCAAAGCCGCCACCAGCCAGCAGUGCCCUGUCUCUGGGGACAUCCAGGGCAGUGUUGUAAUCUGGGGGAGCUCCAGGCAACAUAUUGAACAGCAGGUGAUUUGUUCCUCGAUCCCACCUGGACAACAGAGGAUUGAGCAUCA
B12: chr3:148802587:148802588:-_ENSG00000071794_ENST00000310053|hu_mus|hu_hu_hu_mus_False|28_48 (ssRNA)
RNA: GGGAGUUCUACAGUCCGACGAUCUCCAACAACUUGUCCUCUCAUAGUUCCAAAUAAAACCAAAUCUUGCUCUUCAUCACUCGUUAGAAAGUCAUCUGGAGGAAUAACAUCUUGGAAUUCAAAAUGUGGCAAGAAAGUUGAGUACAACAGAGGAUUGAGCAUCA
B13: chr10:33190432:33190433:-_ENSG00000150093_ENST00000302278|hu_mus|hu_hu_hu_mus_True|38_38 (ssRNA)
RNA: B8 RNA with A61C, U63C, U65G, U66A
B14: chr11:50196439:50196440:+_ENSMUSG00000007850_ENSMUST00000069304|mus_hu|motif|central (ssRNA)
RNA: GGGAGUUCUACAGUCCGACGAUCCCCGUAUCUGUGAUCAGACAUUCCUGAAAAACAGUAAUUGAGGUCUCUUCCAAAUCGGUCUGACCCAAAUCCAUAGCCAUCAUUAUAGCCAUUGUAAUCAUCAUAGCCUCCAUAGCCUCCCAACAGAGGAUUGAGCAUCA
B15: chr3:63791606:63791607:+_ENSMUSG00000027823_ENSMUST00000029405|mus_mus|motif|central (ssRNA)
RNA: GGGAGUUCUACAGUCCGACGAUCAAGUAAAACAAUUUCUUCCUUCUGCAGGCCCCUGAAUAAUGAACACGUAUUAUCCAUACGGAUGUUGAAAACUCCAUCCUCUCUAACACUUUUUUUAUGCACAGUGCCUCCAAAGACUUUCAACAGAGGAUUGAGCAUCA
B16: chr10:112364898:112364899:-_ENSMUSG00000074748_ENSMUST00000099276|mus_mus|motif|central (ssRNA)
RNA: GGGAGUUCUACAGUCCGACGAUCAUCGAAUUCAAACGGGAAUAUUAAUAUUUUUAGUAUUUAAGUCACAUACCUGACUUCGGUUUGUAUCAAAGAGGCCCAAUUGGAGGCUUAGAAAUCAGAGGAGCAGUCCACCGAAGCUGACAACAGAGGAUUGAGCAUCA
B17: chr2:91074313:91074314:-_ENSMUSG00000002109_ENSMUST00000150427|mus_hu|FALSE|FALSE (ssRNA)
RNA: GGGAGUUCUACAGUCCGACGAUCUCCAAUCCCUUUGAUGAAGGUGGGUUUGUCCUUGAUGCCAAAAUUCCAGAGCAUGAUAUCUCCCCCUUUGGAACCCACAGCCACAGUGCUGGGGUGAGUUGGGUGCCACGCCAAGGAUGUCAACAGAGGAUUGAGCAUCA
B18: chr13:14146135:14146136:-_ENSMUSG00000021302_ENSMUST00000170957|mus_hu|FALSE|FALSE (ssRNA)
RNA: GGGAGUUCUACAGUCCGACGAUCAGUGUAUUCAAAAGAACCUACAUCCUCAAGAUAAUGUACACAGUAUUUUUUUAUAUCUAUGUUUUCUGUUCUCUGGCGCAAGAUAUUCUGCACCUGGGUGCUUUCAGGCCUUGACCAAAUCAACAGAGGAUUGAGCAUCA
B19: chr17:65740002:65740003:+_ENSG00000130935_ENST00000581375|hu_hu|hu_hu_hu_mus_False|28_88 (ssRNA)
RNA: GGGAGUUCUACAGUCCGACGAUCAACAAAUCUUUCUUCCCUGGACGCAAGAGUUCAUUCAUAUUAAAAAAAAUAUAUAUCCAUCAAGUUAGGUGUGGUGGCCACACAGAGCUCCAGAGCACUUUGGGAGGUGGAUCUCUGAGUCAACAGAGGAUUGAGCAUCA
B20: 76083062_76087528_4468_CDS_ENSG00000078687_ENST00000588847|human|control|control (ssRNA)
RNA: GGGAGUUCUACAGUCCGACGAUCCAGUCCAGCGAGAGGGUAAGGAGCAAAGGUGUUGGGUGAAGACUGCUGCUCUUUGGUCUGCAGGUCAGGUAGGCCGGGAGUCUGUGGGUGCGAGGGGAAGCUGUCCAUGGCCGAUUUGCCCAACAGAGGAUUGAGCAUCA
B21: 115421839_115421959_1997_CDS_ENSG00000165185_ENST00000337530|human|control|control (ssRNA)
RNA: GGGAGUUCUACAGUCCGACGAUCUUUGAGCAGCUCGAUGUCACCAUACAUCAGAUCCGCAUGCUCCUGCAGCGUCCGCAUGUUCAGGUACUGGCUGUUGUACUUGACCACAGUGGACAGGAGAGUGAUAGGGCUGUCAUCCCCCAACAGAGGAUUGAGCAUCA
B22: chr13:100193624:100193625:-_ENSMUSG00000052727_ENSMUST00000064762|mus_hu|FALSE|FALSE (ssRNA)
RNA: GGGAGUUCUACAGUCCGACGAUCUAAACCCUCAUCAUAGUUAGCAGUGCAAAACAUAGACUUAUCAGACAAAAAUCAACUAAAAUGUUAAUUUUGAAAUAAAUAACUAACAUAGAAAAUAAAAUGAGGUCAUUGUUCUCUACUCAACAGAGGAUUGAGCAUCA

What follows are binders tested against T1, UNK ZnF1-3 (assay: nsRBNS (natural sequence RNA bind-n-seq); RBNS binding buffer (assumed for nsRBNS): 25 mM Tris pH 7.5, 150 mM KCl, 3 mM MgCl2, 0.01% Triton X-100, 500 ug/ml BSA, 20 U/ml SUPERase-In, 4 C; UNK is unkempt and MSI1 is Musashi-1; names of the RNAs are library labels; protein concentration not given here; high values mean tight binding).

Binder	binding signal
B1	0.988 enrichment R
B2	0.895 enrichment R
B3	0.452 enrichment R
B4	1.43 enrichment R
B5	2.44 enrichment R
B6	2.95 enrichment R
B7	0.955 enrichment R
B8	0.989 enrichment R
B9	0.657 enrichment R
B10	0.422 enrichment R
B11	0.901 enrichment R
B12	1.42 enrichment R
B13	0.973 enrichment R
B14	1.02 enrichment R
B15	1.07 enrichment R
B16	1.26 enrichment R
B17	1.05 enrichment R
B18	0.569 enrichment R
B19	1.43 enrichment R
B20	2.03 enrichment R
B21	1.01 enrichment R
B22	1.8 enrichment R
